Publication PMC6648895
These are yes or no findings as the source states them, for the method shown. For some assays here: In cells and extracts the contact can be indirect. Some binding calls cover weakened binding; strength is not graded here. For some assays here: Where a sequence is shown, tags or fusion partners need not be part of it.

Chains of the proteins cited; added tags and fusions are not shown.
UniProt P04650: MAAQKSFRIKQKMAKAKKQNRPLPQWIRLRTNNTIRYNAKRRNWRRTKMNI
UniProt P0CX27: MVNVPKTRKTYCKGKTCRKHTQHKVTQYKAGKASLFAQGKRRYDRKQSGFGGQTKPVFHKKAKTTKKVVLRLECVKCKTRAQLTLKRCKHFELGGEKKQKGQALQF

Legend:
[1] = biological target: Rpl39, Gal4 DNA-binding domain fusion (S. cerevisiae) (UniProt P04650); assay: two-hybrid; reporter strain PJ69-4A; bait fused to Gal4 DNA-binding domain (c-Myc), prey fused to Gal4 activation domain (HA); HIS3 reporter for weak, ADE2 reporter for strong interactions; plates 30°C, 3 days
[2] = biological target: T1, Rps6, Gal4 DNA-binding domain fusion (full-length) (S. cerevisiae) (UniProt P0CX37); assay: as above
T1 sequence: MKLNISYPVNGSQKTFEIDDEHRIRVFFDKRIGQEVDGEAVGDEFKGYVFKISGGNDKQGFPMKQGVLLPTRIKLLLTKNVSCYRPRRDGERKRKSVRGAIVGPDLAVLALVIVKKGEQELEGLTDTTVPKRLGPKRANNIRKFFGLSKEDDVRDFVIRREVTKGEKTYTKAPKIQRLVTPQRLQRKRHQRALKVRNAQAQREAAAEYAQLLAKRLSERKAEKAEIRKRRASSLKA

[3] = biological target: Rpl42, Gal4 DNA-binding domain fusion (S. cerevisiae) (UniProt P0CX27); assay: as above
[4] = biological target: T2, Nap1, Gal4 activation domain fusion (full-length) (S. cerevisiae) (UniProt P25293); assay: two-hybrid; competition: PJ69-4A carrying high-copy URA3 plasmid pADH195-RPS6A or empty YEplac195, co-transformed with bait and prey plasmids; media additionally lacking uracil
T2 sequence: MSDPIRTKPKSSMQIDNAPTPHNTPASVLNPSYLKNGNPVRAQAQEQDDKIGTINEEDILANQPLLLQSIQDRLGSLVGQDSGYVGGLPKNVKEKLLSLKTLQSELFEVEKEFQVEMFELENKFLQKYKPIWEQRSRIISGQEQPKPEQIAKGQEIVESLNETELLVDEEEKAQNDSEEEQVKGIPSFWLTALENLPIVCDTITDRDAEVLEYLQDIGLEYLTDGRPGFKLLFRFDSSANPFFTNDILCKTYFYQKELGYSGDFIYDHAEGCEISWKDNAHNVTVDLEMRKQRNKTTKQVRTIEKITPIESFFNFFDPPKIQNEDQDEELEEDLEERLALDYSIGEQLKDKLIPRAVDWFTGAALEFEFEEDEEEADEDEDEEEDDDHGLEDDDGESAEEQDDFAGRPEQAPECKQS

[5] = biological target: T3, Flag-Rps6 (S. cerevisiae) (UniProt P0CX37); assay: pull-down; proteins co-expressed in E. coli; two-step affinity purification from the lysate, Ni-NTA agarose (300 mM imidazole elution) then Anti-FLAG M2 Affinity Gel (FLAG peptide elution); 50 mM Tris-HCl pH 7.5, 150 mM NaCl; Coomassie-stained gel
T3 sequence: T1 sequence

[6] = biological target: T4, Rps2, Gal4 DNA-binding domain fusion (S. cerevisiae) (UniProt P25443); assay: two-hybrid; reporter strain PJ69-4A; bait fused to Gal4 DNA-binding domain (c-Myc), prey fused to Gal4 activation domain (HA); HIS3 reporter for weak, ADE2 reporter for strong interactions; plates 30°C, 3 days
T4 sequence: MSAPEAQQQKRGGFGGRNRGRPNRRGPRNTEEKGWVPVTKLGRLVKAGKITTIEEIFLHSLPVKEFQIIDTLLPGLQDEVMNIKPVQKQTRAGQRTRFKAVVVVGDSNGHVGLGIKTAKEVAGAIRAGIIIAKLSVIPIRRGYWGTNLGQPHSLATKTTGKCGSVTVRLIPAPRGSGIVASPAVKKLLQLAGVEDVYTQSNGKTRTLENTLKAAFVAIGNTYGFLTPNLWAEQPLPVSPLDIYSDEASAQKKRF

[7] = biological target: T5, Rps2-His6 (S. cerevisiae) (UniProt P25443); assay: pull-down; proteins co-expressed in E. coli; two-step affinity purification from the lysate, Ni-NTA agarose (300 mM imidazole elution) then Anti-FLAG M2 Affinity Gel (FLAG peptide elution); 50 mM Tris-HCl pH 7.5, 150 mM NaCl; Coomassie-stained gel
T5 sequence: T4 sequence

Tsr4-TAP (S. cerevisiae) = biological target: T6, Tsr4-TAP (S. cerevisiae) (UniProt P25040); assay: co-IP; Tsr4-TAP purified from yeast lysate via IgG-Sepharose up to TEV elution; Western blotting of the eluate
T6 sequence: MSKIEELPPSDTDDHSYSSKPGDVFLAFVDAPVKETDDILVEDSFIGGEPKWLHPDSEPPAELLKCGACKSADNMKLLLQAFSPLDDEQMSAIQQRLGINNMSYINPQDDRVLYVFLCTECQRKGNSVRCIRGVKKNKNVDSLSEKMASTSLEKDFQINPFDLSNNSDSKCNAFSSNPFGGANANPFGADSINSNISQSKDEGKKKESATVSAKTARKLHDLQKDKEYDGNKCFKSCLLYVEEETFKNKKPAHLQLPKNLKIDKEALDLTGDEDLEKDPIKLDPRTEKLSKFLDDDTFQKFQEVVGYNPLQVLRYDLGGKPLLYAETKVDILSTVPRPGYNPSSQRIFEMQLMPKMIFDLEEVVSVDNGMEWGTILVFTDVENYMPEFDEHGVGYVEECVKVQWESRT

Nap1-TAP (S. cerevisiae) = biological target: T7, Nap1-TAP (S. cerevisiae) (UniProt P25293); assay: co-IP; Nap1-TAP Rps6a-Flag split purification from yeast lysate: IgG Sepharose, TEV elution, then Calmodulin Sepharose or Anti-FLAG M2 Affinity Gel; Western blotting of eluates
T7 sequence: T2 sequence

B1: Nap1 residues 75–417, Gal4 activation domain fusion (domain or fragment, UniProt P25293 75-417)
chain: GSLVGQDSGYVGGLPKNVKEKLLSLKTLQSELFEVEKEFQVEMFELENKFLQKYKPIWEQRSRIISGQEQPKPEQIAKGQEIVESLNETELLVDEEEKAQNDSEEEQVKGIPSFWLTALENLPIVCDTITDRDAEVLEYLQDIGLEYLTDGRPGFKLLFRFDSSANPFFTNDILCKTYFYQKELGYSGDFIYDHAEGCEISWKDNAHNVTVDLEMRKQRNKTTKQVRTIEKITPIESFFNFFDPPKIQNEDQDEELEEDLEERLALDYSIGEQLKDKLIPRAVDWFTGAALEFEFEEDEEEADEDEDEEEDDDHGLEDDDGESAEEQDDFAGRPEQAPECKQS
With B1 the binding [1] was “binds”, the binding [2] was “binds” and the binding [3] was “binds”.

B2: Rps6 overexpressed from a multicopy plasmid (pADH195-RPS6A) (protein, UniProt P0CX37 1-236)
chain: T1 sequence
In the case of B2, the binding [4] is reported as “binds”.

B3: His6-Nap1 (protein, UniProt P25293 1-417)
chain: T2 sequence
With B3 the binding [5] was “binds”.

B4: Tsr4 ΔN19 (residues 20–408), Gal4 activation domain fusion (domain or fragment, UniProt P25040 20-408)
chain: KPGDVFLAFVDAPVKETDDILVEDSFIGGEPKWLHPDSEPPAELLKCGACKSADNMKLLLQAFSPLDDEQMSAIQQRLGINNMSYINPQDDRVLYVFLCTECQRKGNSVRCIRGVKKNKNVDSLSEKMASTSLEKDFQINPFDLSNNSDSKCNAFSSNPFGGANANPFGADSINSNISQSKDEGKKKESATVSAKTARKLHDLQKDKEYDGNKCFKSCLLYVEEETFKNKKPAHLQLPKNLKIDKEALDLTGDEDLEKDPIKLDPRTEKLSKFLDDDTFQKFQEVVGYNPLQVLRYDLGGKPLLYAETKVDILSTVPRPGYNPSSQRIFEMQLMPKMIFDLEEVVSVDNGMEWGTILVFTDVENYMPEFDEHGVGYVEECVKVQWESRT
B4 was tested, and the binding [6] was “binds”.

B5: Tsr4-Flag (protein, UniProt P25040 1-408)
chain: T6 sequence
B5 was tested, and the binding [7] was “binds”.

B6: Rps2 (endogenous) (protein, UniProt P25443 1-254)
chain: T4 sequence
With B6 the binding (Tsr4-TAP (S. cerevisiae)) was “binds”.

B7: Rps6a-Flag (protein, UniProt P0CX37 1-236)
chain: T1 sequence
B7 was tested, and the binding (Nap1-TAP (S. cerevisiae)) was “binds”.

B8: Nap1 residues 1–365, Gal4 activation domain fusion (domain or fragment, UniProt P25293 1-365)
chain: MSDPIRTKPKSSMQIDNAPTPHNTPASVLNPSYLKNGNPVRAQAQEQDDKIGTINEEDILANQPLLLQSIQDRLGSLVGQDSGYVGGLPKNVKEKLLSLKTLQSELFEVEKEFQVEMFELENKFLQKYKPIWEQRSRIISGQEQPKPEQIAKGQEIVESLNETELLVDEEEKAQNDSEEEQVKGIPSFWLTALENLPIVCDTITDRDAEVLEYLQDIGLEYLTDGRPGFKLLFRFDSSANPFFTNDILCKTYFYQKELGYSGDFIYDHAEGCEISWKDNAHNVTVDLEMRKQRNKTTKQVRTIEKITPIESFFNFFDPPKIQNEDQDEELEEDLEERLALDYSIGEQLKDKLIPRAVDWFTGAAL
With B8 the binding [1] was “no binding”, the binding [2] was “no binding” and the binding [3] was “no binding”.

B9: Tsr4 ΔN40 (residues 41–408), Gal4 activation domain fusion (domain or fragment, UniProt P25040 41-408)
chain: VEDSFIGGEPKWLHPDSEPPAELLKCGACKSADNMKLLLQAFSPLDDEQMSAIQQRLGINNMSYINPQDDRVLYVFLCTECQRKGNSVRCIRGVKKNKNVDSLSEKMASTSLEKDFQINPFDLSNNSDSKCNAFSSNPFGGANANPFGADSINSNISQSKDEGKKKESATVSAKTARKLHDLQKDKEYDGNKCFKSCLLYVEEETFKNKKPAHLQLPKNLKIDKEALDLTGDEDLEKDPIKLDPRTEKLSKFLDDDTFQKFQEVVGYNPLQVLRYDLGGKPLLYAETKVDILSTVPRPGYNPSSQRIFEMQLMPKMIFDLEEVVSVDNGMEWGTILVFTDVENYMPEFDEHGVGYVEECVKVQWESRT
With B9 the binding [6] was “no binding”.

B10: Tsr4 1–400, Gal4 activation domain fusion (domain or fragment, UniProt P25040 1-400)
chain: MSKIEELPPSDTDDHSYSSKPGDVFLAFVDAPVKETDDILVEDSFIGGEPKWLHPDSEPPAELLKCGACKSADNMKLLLQAFSPLDDEQMSAIQQRLGINNMSYINPQDDRVLYVFLCTECQRKGNSVRCIRGVKKNKNVDSLSEKMASTSLEKDFQINPFDLSNNSDSKCNAFSSNPFGGANANPFGADSINSNISQSKDEGKKKESATVSAKTARKLHDLQKDKEYDGNKCFKSCLLYVEEETFKNKKPAHLQLPKNLKIDKEALDLTGDEDLEKDPIKLDPRTEKLSKFLDDDTFQKFQEVVGYNPLQVLRYDLGGKPLLYAETKVDILSTVPRPGYNPSSQRIFEMQLMPKMIFDLEEVVSVDNGMEWGTILVFTDVENYMPEFDEHGVGYVEECV
B10 was tested, and the binding [6] was “no binding”.
